According to PMC4336329 (PLoS ONE, 2015):
Out of some 310,000 compounds screened, about 2,200 (0.71%) showed an effect of 50% or more. Effects have a minus sign here. This is one part of the list.

Biological target: human ether-à-go-go-related gene (hERG) potassium channel (human, UniProt Q12809)
Assay: primary screen, population patch clamp on CHO cells stably expressing hERG

Sequence of human ether-à-go-go-related gene (hERG) potassium channel (Q12809 whole entry, looked up): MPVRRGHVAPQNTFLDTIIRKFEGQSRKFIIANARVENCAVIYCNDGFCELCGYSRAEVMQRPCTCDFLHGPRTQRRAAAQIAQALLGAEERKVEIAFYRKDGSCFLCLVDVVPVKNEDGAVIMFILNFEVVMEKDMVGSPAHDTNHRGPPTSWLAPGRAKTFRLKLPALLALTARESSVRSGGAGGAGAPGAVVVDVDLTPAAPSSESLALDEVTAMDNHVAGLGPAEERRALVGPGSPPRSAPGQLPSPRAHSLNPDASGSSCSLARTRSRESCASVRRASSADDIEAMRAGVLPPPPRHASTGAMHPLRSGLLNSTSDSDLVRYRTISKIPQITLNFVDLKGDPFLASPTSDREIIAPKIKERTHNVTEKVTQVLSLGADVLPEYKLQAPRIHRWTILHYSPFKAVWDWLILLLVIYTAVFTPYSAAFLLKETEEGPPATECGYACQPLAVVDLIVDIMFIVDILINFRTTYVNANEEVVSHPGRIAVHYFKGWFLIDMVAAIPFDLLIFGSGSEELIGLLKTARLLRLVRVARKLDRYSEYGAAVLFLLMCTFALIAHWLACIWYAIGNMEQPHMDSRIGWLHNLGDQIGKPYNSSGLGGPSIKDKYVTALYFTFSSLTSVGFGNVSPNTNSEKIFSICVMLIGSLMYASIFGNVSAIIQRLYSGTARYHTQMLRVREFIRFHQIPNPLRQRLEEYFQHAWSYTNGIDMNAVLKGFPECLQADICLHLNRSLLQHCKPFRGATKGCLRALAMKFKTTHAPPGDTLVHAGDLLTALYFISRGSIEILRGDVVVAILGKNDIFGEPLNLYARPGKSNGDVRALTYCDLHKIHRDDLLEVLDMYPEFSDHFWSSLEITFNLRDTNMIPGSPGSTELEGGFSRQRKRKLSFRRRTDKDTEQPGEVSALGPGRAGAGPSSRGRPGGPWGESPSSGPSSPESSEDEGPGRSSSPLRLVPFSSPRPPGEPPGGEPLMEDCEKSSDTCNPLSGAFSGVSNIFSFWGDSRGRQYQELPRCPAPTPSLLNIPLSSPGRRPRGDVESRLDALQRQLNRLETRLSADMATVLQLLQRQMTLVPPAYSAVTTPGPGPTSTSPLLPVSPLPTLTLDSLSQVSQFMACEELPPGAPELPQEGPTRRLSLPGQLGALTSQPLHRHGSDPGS

Compound | hERG current change (%, negative = inhibition) at 1uM [%]
CN(CC1CCCO1)S(=O)(=O)c1ccc(C(=O)Nc2ccccc2F)cc1 (stereo not shown) | 7.45
O=C(CN1CCN(Cc2ccccc2Cl)C1=O)NCCCN1CCOCC1 | 13.2
CC(C)(C)c1ccc(CSc2ccc(S(=O)(=O)N3CCOCC3)cn2)cc1 | 7.21
Cc1ccc(C(=O)NCC(=O)O)s1 | 10.7
CC(NC(=O)NC1CCCCC1)c1ccc2c(c1)OCO2 (stereo not shown) | 6.92
Cc1ccccc1NC(=O)Cc1nc(COC(=O)Cc2ccccc2F)cs1 | 7.25
COC(=O)[C@H]1C[C@@H]1[C@H](NC(=O)[C@H]1C[C@@H]1[C@H](NC(=O)OCc1ccccc1)c1ccccc1)c1ccccc1 | 11.3
CN(C)C(=O)COC(=O)c1ccccc1NC(=O)c1ccco1 | 10.6
CS(=O)(=O)N(CC(=O)NCc1ccc2c(c1)OCO2)c1cccc(Cl)c1 | -16
CN(C(=O)c1cccnc1)c1nc(-c2ccccc2)cs1 | 11.4
CCCCn1c(N)c(N(CCOC)C(=O)c2ccc(-c3cccc(C(F)(F)F)c3)o2)c(=O)[nH]c1=O | 10.2
CN(C)S(=O)(=O)c1cccc(-c2nn(-c3ccccc3)cc2/C=C2\SC(=S)NC2=O)c1 | 5.57
COc1ccc(CNC(=O)C2CCN(C(=O)c3csc(Nc4ccc(C)cc4)n3)CC2)cc1 | 9.94
COc1ccc2c(c1)C(c1ccc(C)o1)=NNC(c1ccccc1)=N2 | 9.69
Nc1nc(N)nc(Cc2ccccc2O)n1 | 7.25
COc1ccccc1NC(=O)C(C)N(C)Cc1ccc(Cl)s1 (stereo not shown) | 13.4
O=C(N/N=C/c1cccs1)C1CC(=O)N(c2ccccc2)C1 (stereo not shown) | 2.89
CN1CCN(C(c2ccccc2)c2ccc(Cl)cc2)CC1.Cl (stereo not shown) | -3.06
O=C(c1cn(Cc2ccccc2)nc1-c1cccnc1)N1CCc2ccccc2C1 | 7.31
NC(=O)c1nsc(C(=O)N(c2cccc(F)c2)C(C(=O)NCC2CCCO2)c2c[nH]c3ccccc23)c1N (stereo not shown) | 8.63
O=S1(=O)CCC(n2nccc2-c2ccccc2)C1 (stereo not shown) | 11.4
Cc1ccc([N+](=O)[O-])c(OCCCN2C(=O)NC(C)(C)C2=O)c1 | 14
CCCCCn1c(CNC(=O)c2cccs2)nc2ccccc21 | -6.49

Compound | hERG current change (%, negative = inhibition) at 1uM [%]
Cc1nnc(NC(=O)CSCc2ccccc2)s1 | 6.6
S=C(Nc1ccc(Cl)cc1Cl)N1CCCCC1 | 4
COc1cc(OC)c(-c2nn3c(C4CCCCC4)nnc3s2)cc1OC | 9.63
O=C(NCc1cccnc1)Nc1ccccc1C(F)(F)F | 0.0148
C[N+](C)(C)CCN1C(=O)CSC1=O.[I-] | 12.8
COc1ccc(-c2csc(N(CCCN3CCOCC3)C(=O)CCl)n2)cc1.Cl | 9.77
Cc1c(C=O)cnn1CCC(=O)O | 5.15
O=C(CN1CCN(c2ccc(O)cc2)CC1)NC(c1ccccc1)c1ccccc1 | -2.9
COc1ccc(O)c(/C=N/NC(=S)Nc2cccc(S(=O)(=O)N(C)C)c2)c1 | -2.78
COc1ccc(/C=C/C(=O)NC(CCSC)C(=O)O)cc1 (stereo not shown) | 3.39
C/C(=C\c1ccc(N)cc1)c1nc2ccccc2[nH]1 | 10
O=C(/C=C/c1c(F)cccc1Cl)Nc1cccnc1 | 20.9
COc1ccccc1Cn1c(SCC(=O)C(C)(C)C)nc2cc(C(=O)N3CCC4(CC3)OCCO4)ccc2c1=O | 1.32
COc1ccccc1-n1nnnc1SCC(=O)N(C)C1CCS(=O)(=O)C1 (stereo not shown) | 5.14
COc1cc(F)c(C2=CC(=O)C[C@H](c3ccc(F)cc3)C2)cc1F | 18.1
CCCn1c(C(C)NS(=O)(=O)c2ccccc2)n[nH]c1=S (stereo not shown) | 15
Cc1cc2nc(-c3ccco3)cc(C(F)(F)F)n2n1 | 2.34
COc1ccccc1-n1c(N)c(C(N)=O)sc1=S | 13.7
Cc1ccc(NS(=O)(=O)c2cccc(C(=O)NCC(c3cccs3)N(C)C)c2)cc1 (stereo not shown) | 8.66
O=C(NCCc1nnc2ccc(NCc3ccc(F)cc3)nn12)c1ccccc1 | 6.07
CC(C)c1ccc(NC(=S)Nc2ccc(OC(F)(F)F)cc2)cc1.Cl | 14.7
Cc1oc2cc3oc(=O)c(CCC(=O)NCCCC(=O)O)c(C)c3cc2c1C | 11.3
COc1ccc(CC2S/C(=N/N=C/c3ccc(O)cc3)NC2=O)cc1 (stereo not shown) | 8.21

Compound | hERG current change (%, negative = inhibition) at 1uM [%]
O=C(NC1CC2CCCC(C1)N2C(=O)Nc1ccccc1)C1CC1 (stereo not shown) | 7.37
C=CCn1c(Cc2ccccc2)n[nH]c1=S | 3.56
N#CCC(=O)N/N=C/c1ccccc1Cl | 8.87
Cc1cc(C)nc(SCc2nnc(SCC(=O)Nc3ccc(C)c(C)c3)o2)n1 | 11.7
CN(C)c1ccc(N=Cc2nc(-c3ccccc3)oc2O)cc1 | 7.01
Nc1c(Cl)ncnc1N/N=C/c1ccnc2ccccc12 | 9.3
Cc1ccc(S(=O)(=O)N(Cc2ccc(Cl)cc2)c2ccccc2C(=O)O)cc1 | 11.3
Cn1cccc1CC(=O)N/N=C/C(Cl)=C/c1ccccc1 | 9.15
CCOC(=O)C1=C(c2ccc(O)cc2)NC(=O)NC1C (stereo not shown) | 16.1
CSCCC(NC(=O)c1ccccc1Br)C(=O)N1CCCCCCC1 (stereo not shown) | 6.99
O=C(Nc1ccccc1NC(=O)c1ccc(F)cc1)c1ccc(F)cc1 | 12.9
CC1CCN(S(=O)(=O)c2ccc(C(=O)OC(C)C(=O)N(C)C3CCCCC3)cc2)CC1 (stereo not shown) | 5.25
CCC(C)NS(=O)(=O)c1ccc(OCC(=O)NCc2ccco2)cc1 (stereo not shown) | 2.45
COc1cccc(Cn2cnc3c([N+](=O)[O-])c(C)c(C)cc32)c1 | 3.16
COc1ccc(SCCN2CC[C@@H](O)CCC2=O)cc1 | 15.8
COc1ccc(-c2ccc(CCC(=O)O)n2NC(N)=O)cc1 | 11.5
Cc1ccc(-c2cn(S(=O)(=O)c3cccc4nsnc34)nc2N)cc1 | 14.1
COCCn1c(C)cc(C(=O)CSc2nnc(C)s2)c1C | 10.8
COc1ccc(C2C3=C(NCCN=C3c3ccccc3)C(=O)N2c2ccccc2)c(OC)c1 (stereo not shown) | 1.89
Cc1cccc(C)c1NC(=O)N1CCCC1C(=O)Nc1ccc(-n2cnnn2)cc1 (stereo not shown) | -12.5
C=CCNC(=O)CC(=O)N/N=C/c1ccc(C(=O)OC)cc1 | 7.21
COc1cc(NS(=O)(=O)c2ccc(NC(=S)Nc3ccccc3)cc2)nc(OC)n1 | 4.66
N#Cc1nnn(Cc2ccccc2)c1N | 11.5

Compound | hERG current change (%, negative = inhibition) at 1uM [%]
CCC1CCC(C(=O)NC(C(=O)NCCCN2CCCCC2C)C(C)C)CC1 (stereo not shown) | 7.64
Cc1ccnc(N2CCN(C(=O)CSc3nc4ccccc4nc3N3CCCCC3)CC2)c1 | -6.99
COc1ccc(CC(=O)Oc2ccc(C)cc2Br)cc1OC | 10.5
O=C1C2C(C(=O)N1Cc1cccnc1)C1C=CC2C12CC2 (stereo not shown) | 8.2
CCCOc1ccc(-c2nc(C#N)c(NCCCn3ccnc3)o2)cc1 | 0.514
O=C(NCc1ccc(Cl)cc1Cl)C(=O)N1CCCCC1 | 7
COc1ccc(C2=NS(=O)(=O)N(C)C(C(=O)Nc3ccc(OC)c(OC)c3)=C2)cc1 | -0.291
COc1ccc(/C=N/S(=O)(=O)c2ccccc2)cc1OC | 19.9
O=C(O)c1cccc(S(=O)(=O)Nc2ccc3[nH]c(=O)[nH]c3c2)c1 | 6.32
CCNC(=O)c1cc(S(=O)(=O)N2CCSCC2)ccc1OC | 19.3
Nc1nc(NC(=O)/C=C\C(=O)O)nn1-c1ccccc1 | 21.4
COc1cc(C(=O)NCCc2ccc3c(c2)OCCO3)ccc1OCC(=O)N1CCOCC1 | -10.5
O=C(C1CC(=O)N(C2CCCC2)C1)N1CCN(c2ccccc2)CC1 (stereo not shown) | 14.7
c1ccc(N2CCN(c3ncnc4scc(-c5cccs5)c34)CC2)cc1 | 6.78
CCn1c(SCC(=O)NC2CC2)nnc1-c1ccccn1 | 6.93
COC(=O)c1ccc2nc(NC(=O)CCS(=O)(=O)c3ccccc3)sc2c1 | 2.32
Cc1ccccc1Nc1nc(N)nc(COC(=O)[C@@H](NC(=O)c2c(F)cccc2F)C(C)C)n1 | 3.7
Cc1cc(NC(=O)C2CCCCC2)n(-c2nc3ccccc3[nH]2)n1 | 15.1
O=C(O)c1ccc(N/N=C/c2cccc3cccnc23)cc1 | 0.832
Cn1ncc(Br)c1NC(=O)c1ccco1 | 21.3
Cc1c(C(=O)NCc2ccccc2CN2CCCC2)oc2ccc(F)cc12 | -57.4
CC(C)n1nnnc1CN1CCN(C)CC1.Cl | 3.2
